# Reference: article PMC6919601, “Identification of Plasmodium dipeptidyl aminopeptidase allosteric inhibitors by high throughput screening” (PLoS ONE, 2019)
# Out of some 110,000 compounds screened, about 230 (0.21%) showed an effect of 50% or more. The list shows a part of the results.
# Target: DPAP1 (Plasmodium falciparum, UniProt Q8IIJ9)
# Assay: primary screen, percent inhibition; read by cleavage of a fluorogenic dipeptide substrate; higher = more effect of the substance
# Design: species or system P. falciparum D10 trophozoite lysates; single well
# 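Further: 30 min substrate incubation versus DMSO and 10 µM JCP410 controls.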
# Sequence of DPAP1 (Q8IIJ9 whole entry, looked up): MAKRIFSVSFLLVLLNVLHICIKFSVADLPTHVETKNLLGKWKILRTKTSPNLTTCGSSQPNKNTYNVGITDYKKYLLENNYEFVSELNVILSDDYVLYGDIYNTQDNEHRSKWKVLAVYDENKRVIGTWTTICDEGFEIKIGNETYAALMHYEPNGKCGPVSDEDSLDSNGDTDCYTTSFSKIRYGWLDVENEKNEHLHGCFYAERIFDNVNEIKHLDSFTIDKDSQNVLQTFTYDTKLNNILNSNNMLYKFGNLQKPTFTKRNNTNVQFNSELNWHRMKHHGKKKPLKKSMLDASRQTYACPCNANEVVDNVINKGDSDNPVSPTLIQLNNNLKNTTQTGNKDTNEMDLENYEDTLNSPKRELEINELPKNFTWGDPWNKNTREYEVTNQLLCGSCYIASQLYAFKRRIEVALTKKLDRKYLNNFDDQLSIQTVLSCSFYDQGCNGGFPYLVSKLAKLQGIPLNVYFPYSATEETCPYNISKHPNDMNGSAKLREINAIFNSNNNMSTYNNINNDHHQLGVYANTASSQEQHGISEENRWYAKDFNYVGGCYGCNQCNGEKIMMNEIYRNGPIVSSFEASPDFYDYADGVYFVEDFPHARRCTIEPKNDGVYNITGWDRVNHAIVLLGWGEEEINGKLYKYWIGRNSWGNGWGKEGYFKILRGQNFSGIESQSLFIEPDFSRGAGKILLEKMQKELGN
row,SMILES,% Inhibition @ 10 uM [%]
1,CSc1nc2ccc(NC(=O)c3ccccc3F)cc2s1,-4.6
2,CC(Nc1nc2nonc2nc1NC(C)c1ccccc1)c1ccccc1 (centres unmarked),14.4
3,CC(C)CN(CCCNC(=O)Cn1nc(-c2ccc(Cl)cc2)ccc1=O)CC(C)C,-3.58
4,CC(CN1CCCCCC1)C(=O)c1ccccc1 (centres unmarked),0.565
5,COc1ccc(-c2nc(C=C3C(=O)c4ccccc4C3=O)c3ccccn23)cc1,-5.2
6,CCOc1ccc(/C=C(/C#N)c2nc(-c3ccc(Br)cc3)cs2)o1,-2.03
7,CCOc1ccccc1-c1cc(C(=O)Nc2ccc(NC(C)=O)cc2)c2ccccc2n1,1.34
8,O=C(CSc1nc2ccccc2n2cnnc12)NCCc1ccccc1,-1.68
9,CCOc1ccc2ncc(S(=O)(=O)c3ccc(Cl)cc3)c(N3CCN(CC)CC3)c2c1,-0.563
10,CCC(=O)N1C(C(=O)NCCCN(CC)CC)CSC12CCN(C)CC2 (centres unmarked),5.78
11,COc1cccc(C2CC(c3ccc(Cl)cc3OC(F)F)Nc3ncnn32)c1OC (centres unmarked),0.219
12,CC1C/C(=C\c2ccc3nccnc3c2)C(=O)/C(=C/c2ccc3nccnc3c2)C1 (centres unmarked),20.9
13,CCO/C(O)=C1\C(C)=NC2=C(C(=O)CCC2)C1c1cccc(O)c1 (centres unmarked),1.26
14,CCN(CC)CCNCc1c(C(=O)O)n(Cc2ccccc2Cl)c2ccccc12,5.09
15,C#CCOc1nc(OCC#C)nc(N2CCN(C)CC2)n1,-1.15
16,C/C(=C(/NC(=O)c1ccccc1)C(=O)NC1CCCCC1)c1ccccc1,-0.988
17,N#Cc1cc2c(N)c(C(=O)Nc3ccccc3Br)sc2nc1N,0.661
18,COCc1nc2cc(C)ccc2[nH]1,1.12
19,COc1cccc(NC(=O)CNS(=O)(=O)c2ccc(Br)cc2)c1,8.82
20,COc1ccccc1NC(=O)CN(Cc1ccc(Cl)cc1)S(=O)(=O)c1ccc(C)cc1,-3.39
21,Cc1nc(SCC(=O)NC(C)c2ccccc2)[nH]c1CC(C)C (centres unmarked),-3.75
22,CN(C)CCSC1c2ccccc2CSc2ccccc21 (centres unmarked),-4.76

row,SMILES,% Inhibition @ 10 uM [%]
1,Cn1c(N)c(Sc2nnnn2-c2ccccc2)c(=O)[nH]c1=O,1.72
2,CCc1ccc(CN2C(=O)c3ccccc3C2C(=O)NCCc2ccccc2)cc1 (centres unmarked),8.4
3,Cc1ccc(N2C(=O)c3ccccc3NC23C(=O)Nc2ccccc23)cc1 (centres unmarked),6.98
4,CCc1c(C#N)c(SCCC(=O)NCc2ccc3c(c2)OCO3)nc2c1C(=O)CC(C)(C)C2,-3.9
5,CNS(=O)(=O)c1cnccc1N1CCN(c2cccc(Cl)c2)CC1,-1.59
6,COc1ccc(CN2CCN(C(=O)c3ccc(-n4cnc5cccnc54)cc3)CC2)c(OC)c1OC,-5.35
7,Cc1ccc2c(CN3CCN(C(=O)c4ccccc4)CC3)cc(=O)oc2c1,0.635
8,CC1CC(C)CN(c2c(-c3ccccc3)c(=O)c2=O)C1 (centres unmarked),-1.98
9,CCOC(=O)N1CCC(N2CCc3c([nH]c4ccccc34)C2)CC1,-3.6
10,Cn1c(=O)c2c(ncn2CC(=O)NCCc2ccc(F)cc2)n(C)c1=O,3.72
11,COc1cccc2c1cc1c(O)nnc(C)n12,0.0882
12,CC(=O)CC(=O)Nc1ccc(Cl)cc1[N+](=O)[O-],4.34
13,c1ccc(CCCN2CCOCC2)cc1,-1.78
14,OCC1CCCN1Cc1cccc(Cl)c1 (centres unmarked),-4.14
15,C#CCOC(=O)c1ccc(S(=O)(=O)N2CCOCC2)cc1,13
16,O=C1C(=O)N(C(=O)Nc2cccc3ccccc23)c2ccc(Br)cc21,-0.415
17,COc1ccccc1N1CCN(C(=O)CN(c2ccc(C)cc2)S(=O)(=O)c2ccc(C)cc2)CC1,-4.91
18,CCOCCCNC(=O)C(C)n1nc(C)c2sc3ccccc3c2c1=O (centres unmarked),2.95
19,COc1ccc(N2C(=O)C3CC(C)=C(C)CC3C2=O)c(OC)c1 (centres unmarked),0.983
20,CC(C)CNC(=O)C1CC(c2ccc(F)cc2)=NO1 (centres unmarked),-2.16
21,Cc1ccc(NC(=O)c2ccccc2Cl)cc1O,0.907
22,O=C1NC(=O)N(C2CCCCC2)C(=O)/C1=C\c1c[nH]c2ccccc12,-5.01

row,SMILES,% Inhibition @ 10 uM [%]
1,CCN(Cc1cc2cc(C)ccc2nc1O)S(=O)(=O)c1ccc(C)cc1,-0.671
2,Cc1cccc(C(=O)Nc2ccc(C)cc2C)c1,-1.22
3,CCc1ccc(S(=O)(=O)Nc2ccc(O)cc2)cc1,5.43
4,COc1cccc(C2/C(=C(\O)OCCC(C)C)C(C)=Nc3nnnn32)c1OC (centres unmarked),3.27
5,COC(=O)/C(=C1/Oc2cc3c(cc2S1)OCO3)C(F)(F)F,0.146
6,COc1ccc(Cl)cc1NC(=O)c1cccnc1,2.22
7,Cc1ccc(-c2nnn3c2nc(NCCC(C)C)c2ccccc23)cc1,-8.42
8,O=C(O)CN1CC(c2ccccc2)CC1=O (centres unmarked),-6.11
9,CCOC(=O)c1c(S(=O)(=O)N(CCOC)Cc2cccs2)c(C)n(C)c1C,0.399
10,CC(C)(C)OC[C@H](NC(=O)c1ccccc1)C(=O)NCC#N,-1.83
11,CCN1CCN(C(CNS(=O)(=O)c2ccc(C)cc2)c2ccccc2)CC1 (centres unmarked),-4.42
12,Oc1nc(-c2ccccn2)nc2c1Cc1cc(F)ccc1O2,0.655
13,COc1cccc(-c2cc(C(=O)Nc3cnn(Cc4ccc(F)cc4)c3)no2)c1,-4.07
14,Cc1cc(C(=O)O)sc1CNCC(C)c1ccccc1 (centres unmarked),-2.37
15,COCCNC(=O)c1cnn(-c2ccc(OC)cc2)c1C1CCN(C(=O)OC(C)(C)C)CC1,-1.07
16,C=CCN(CC=C)C(=O)c1c(OC)cccc1OC,4.07
17,CC(C)N(Cc1nc(-c2ccc(Cl)cc2)no1)C(=O)c1ccc(F)cc1,-0.942
18,Cc1nn(Cc2ccc(C(=O)Nc3cccc(S(=O)(=O)N4CCOCC4)c3)o2)c(C)c1Cl,-3.49
19,Cc1ccc(OCCCCN2CCOCC2)cc1,-4.31
20,C=CCNc1ncnc2c1c(-c1ccccc1)cn2-c1ccccc1,-1.62
21,CC(C)(C)NC(=O)N1CCC(C(=O)O)CC1,0.64
